Whole data set: some 33,000 sequences, median “E-score (-0.5 to 0.5)” near -0.013, cut for the highest 2% near 0.3. Some of the results follow.
biological target: T1, Msn1 (UniProt P22148); experiment: PBM E-score (8-mer binding enrichment) (E-score (-0.5 to 0.5)); higher = stronger / more preferred TF binding; most listed sequences are background and not binding sites; conditions: protein concentration: 200 nM; construct: GST-full length
T1 sequence: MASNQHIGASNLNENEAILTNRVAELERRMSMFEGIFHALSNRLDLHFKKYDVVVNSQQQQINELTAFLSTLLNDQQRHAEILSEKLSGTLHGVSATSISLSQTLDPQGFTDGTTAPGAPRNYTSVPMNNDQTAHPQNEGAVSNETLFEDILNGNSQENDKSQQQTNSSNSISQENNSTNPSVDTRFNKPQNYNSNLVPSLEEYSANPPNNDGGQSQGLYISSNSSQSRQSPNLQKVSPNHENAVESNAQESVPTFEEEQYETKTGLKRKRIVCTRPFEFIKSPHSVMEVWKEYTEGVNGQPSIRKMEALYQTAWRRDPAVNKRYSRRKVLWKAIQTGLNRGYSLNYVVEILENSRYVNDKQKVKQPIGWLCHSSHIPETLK
How it was run: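 Full-length yeast transcription factors or their DNA-binding domains, GST-tagged and expressed with PURExpress, were applied at about 100-200 nM to universal all-10-mer Agilent arrays. These arrays had been made double-stranded by primer extension on fresh or once-stripped slides. Detection used fluorescent anti-GST, normalisation used masliner, and E-scores for ungapped eight-base words pooled with reverse complements came from the Universal PBM Analysis Suite.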

Sequence	PBM E-score
CCCCGACC	-0.275
AATAATGC	0.0867
CGGCAACA	0.153
ACTAAAAC	0.14
TACGAAAA	0.165
AGCTGTCC	0.0154
CATCAAAA	0.19
ACAGATAT	0.179
AAACTAAG	0.179
ACGTTTCG	-0.0593
ATCATCAT	0.0315
GAATAGGA	0.0921
GTTCGCCA	-0.0522
AAAGGACT	0.0135
GCCCGCAA	-0.0655
ATGTAAAC	0.159
ACTCCCGC	-0.119
ACACGCCA	0.0178
CGGAGCAA	0.178
CTCTTACA	0.0199
CGGATCTA	-0.0937
CGGCCACA	-0.0351
ACGACCCA	-0.15
GCATGCTA	-0.159
CATTGATC	0.0339

Sequence	PBM E-score
ATGTATAC	0.133
CGGGCCTA	-0.124
GACGAGCC	-0.0533
GAACTTTA	0.0977
CATCCGGG	-0.176
TTAAACAA	-0.00485
CAAAAGGC	0.137
GGCACGCC	-0.331
CATTTTCC	0.131
GTATACGA	-0.112
AATGAACA	0.0706
GCAACAGA	0.00873
AACCTCAT	0.0119
ACCACAGG	-0.142
ATCCCGCC	-0.111
ATCTCACG	-0.0816
ATCCTTAG	-0.2
AGATAGAT	-0.0207
GGCTATAA	-0.0391
CAAAGCGC	-0.0695
CGGACCAG	-0.125
ACACGGCG	0.0249
ACCCGGAT	-0.0832
ATGAATGG	0.15
AGGCTCAA	-0.133

Sequence	PBM E-score
ACGCGTAA	0.0124
CGCAATTC	0.038
ATTGGACC	-0.101
GCTGGCAC	-0.222
CAGCACCC	-0.154
ATCAAGAG	0.0633
ACGTGCGA	-0.12
CTCACCAA	0.0761
ATGGAATC	0.0966
CTCATGGC	-0.127
TAGCTATA	-0.174
AAGGACTG	-0.0408
GCCCTAAC	-0.0728
GTTCCCGA	5e-05
ACTACATA	0.0708
CTGATGCC	0.0666
CTAATCAC	0.0956
CTTTCTCC	-0.291
AACCGCAA	0.149
CCAAAGCC	-0.00175
ACACAGTC	0.148
CCGTCTAG	0.0817
GTCTCTAA	0.133
CCCACATC	-0.199
CAACCGTG	-0.136

Sequence	PBM E-score
ACGAGTAC	0.146
ATACGCCA	0.0688
AAGGAATA	0.144
CGGCGGGA	-0.181
CACGCCCA	-0.0451
AGAGGAGG	-0.382
TCGTATAA	0.172
CCAAAGAG	-0.0341
AATTTTGG	0.127
AAATAACC	0.0634
GAGGTGAA	-0.012
GCTTCAAC	-0.014
CGTCGAAA	0.114
GGCCGAAC	-0.239
CCCTCCGG	-0.294
GCATGTCA	0.261
CTCGTCAA	-0.113
CTGTCCCA	0.281
GAGCCGCC	-0.217
AGTTATAC	0.128
ACCGAGAC	0.153
ACTAAGAC	0.19
GTTCGCGA	0.199
GAATCGTA	0.0128
AGCTTTAA	0.09

Sequence	PBM E-score
GAGAGCAA	-0.252
AGATTACA	0.0428
GCTAAACC	-0.0855
GGTCAACC	-0.243
CCTCAGCC	-0.225
GCCTGACA	-0.0691
CTATCTAC	0.1
TCTGTGCA	0.0332
TACCAACA	0.175
TGGAGAAA	-0.147
AGTAAGTC	-0.0393
CCAATCTA	-0.0717
AATCCCGC	0.126
CTGTAAAC	-0.0793
CGTATACC	-0.305
TAGAGGGA	-0.154
ACGCCACA	0.151
CTTCCCTC	-0.31
ACCTCCCT	-0.226
ACCGGAGC	-0.131
CGGCATCC	0.101
AAGCAGGT	-0.0389
CAACCTCG	-0.0389
CGAATACG	0.00759
CGCCAGTA	-0.226

Sequence	PBM E-score
CAGTTTCC	-0.0764
GATTCGCC	-0.133
GATCGTAC	-0.204
AAGGTCCG	-0.0417
ACCACCTC	-0.00496
TGGCCAAA	0.0563
GGAGGGTA	-0.135
CCCTACAA	0.0189
GGCAAAAA	0.269
AAAACGCG	0.124
AGTCGTCA	0.0866
ACATCTCT	0.121
CTAGCTTC	0.0402
AACATTTG	0.0852
AGAGAAAT	0.0169
AAACGTGG	-0.15
GAGGTGCA	0.0087
AAAGCGCC	-0.0634
AGATAATA	0.0386
AAATGAAT	-0.0537
CGTTCCTA	-0.249
ACTGGATC	-0.0281
ATACTGCA	0.0924
CAGATCAG	0.018
CGCCACTC	-0.178

Sequence	PBM E-score
CGACTATA	0.0562
AGCCCTAA	-0.0523
ACACACGA	0.0747
CTATCCAC	0.0131
AGCCCATG	-0.0144
AGTCTCGG	0.11
ATGGCATA	0.061
CTCTTAAA	0.144
CTTATATC	0.0464
AGATCCCC	-0.223
CCTAATCA	0.0796
AGGATAGA	-0.123
ATTACTTC	-0.0372
CCTTTGGA	-0.149
AGTCCCCC	-0.357
AGAAGAAT	-0.0335
CACTCACC	-0.249
AAGGCTCT	-0.105
ATGTCCCC	0.479
AATATACA	0.173
CGTGTTCA	0.161
GGTGGTGA	-0.0848
